No constants are given. Whether binding was seen depends on the method and setting. In cells and extracts the contact can be indirect. Some results given as binding are weak or reduced against the parent protein; the word gives no strength. Sequences can lack the tags named with a protein.
Tests used:
[1] = molecular target: T1, Flag-tagged JMJD2A amino acids 2-350 (UniProt O75164); assay: co-IP; 293T cells transiently cotransfected with a Flag-tagged and a 6Myc-tagged protein; cell extracts two days after transfection; immunoprecipitation with anti-Flag antibodies, anti-Myc Western blot
T1 sequence: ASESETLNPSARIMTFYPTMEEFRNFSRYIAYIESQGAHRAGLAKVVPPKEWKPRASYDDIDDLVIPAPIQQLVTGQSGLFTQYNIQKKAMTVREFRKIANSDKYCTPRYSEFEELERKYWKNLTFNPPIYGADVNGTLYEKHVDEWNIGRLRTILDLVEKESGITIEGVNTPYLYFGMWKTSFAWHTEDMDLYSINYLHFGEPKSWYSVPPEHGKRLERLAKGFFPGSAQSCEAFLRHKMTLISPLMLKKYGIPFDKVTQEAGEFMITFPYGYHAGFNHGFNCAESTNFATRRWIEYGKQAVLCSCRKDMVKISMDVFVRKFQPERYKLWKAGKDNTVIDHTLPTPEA

[2] = molecular target: T2, Flag-JMJD2A (UniProt O75164); assay: as above
T2 sequence: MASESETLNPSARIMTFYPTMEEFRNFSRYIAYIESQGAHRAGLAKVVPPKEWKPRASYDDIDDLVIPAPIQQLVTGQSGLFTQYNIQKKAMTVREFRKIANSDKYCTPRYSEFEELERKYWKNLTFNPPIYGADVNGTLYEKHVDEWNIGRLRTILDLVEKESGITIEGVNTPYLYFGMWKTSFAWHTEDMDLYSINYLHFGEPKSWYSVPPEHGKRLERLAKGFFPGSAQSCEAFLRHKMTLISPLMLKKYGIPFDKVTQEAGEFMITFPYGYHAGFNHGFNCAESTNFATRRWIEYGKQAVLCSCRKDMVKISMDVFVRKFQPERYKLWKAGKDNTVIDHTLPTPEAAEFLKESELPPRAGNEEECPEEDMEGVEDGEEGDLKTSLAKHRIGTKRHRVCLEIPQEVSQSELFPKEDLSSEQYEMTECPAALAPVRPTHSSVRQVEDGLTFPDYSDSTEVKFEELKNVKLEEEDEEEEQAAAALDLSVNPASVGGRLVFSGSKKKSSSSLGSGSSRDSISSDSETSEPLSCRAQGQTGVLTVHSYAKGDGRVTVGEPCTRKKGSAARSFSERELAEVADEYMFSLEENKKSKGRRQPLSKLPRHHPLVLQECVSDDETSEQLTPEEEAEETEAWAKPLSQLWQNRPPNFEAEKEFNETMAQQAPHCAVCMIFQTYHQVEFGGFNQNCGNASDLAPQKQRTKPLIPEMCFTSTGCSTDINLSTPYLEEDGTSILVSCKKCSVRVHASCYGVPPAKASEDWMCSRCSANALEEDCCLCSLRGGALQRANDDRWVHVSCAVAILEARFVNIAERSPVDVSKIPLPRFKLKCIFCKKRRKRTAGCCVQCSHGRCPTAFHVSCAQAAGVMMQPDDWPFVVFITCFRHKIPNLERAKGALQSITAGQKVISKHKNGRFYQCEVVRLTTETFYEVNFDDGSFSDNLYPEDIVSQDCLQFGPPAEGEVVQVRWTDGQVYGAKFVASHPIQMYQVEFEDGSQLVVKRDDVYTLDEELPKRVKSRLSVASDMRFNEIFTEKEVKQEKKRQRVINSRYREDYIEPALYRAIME

B1: 6Myc-JMJD1A (protein, UniProt Q9Y4C1 1-1321)
chain: MVLTLGESWPVLVGRRFLSLSAADGSDGSHDSWDVERVAEWPWLSGTIRAVSHTDVTKKDLKVCVEFDGESWRKRRWIEVYSLLRRAFLVEHNLVLAERKSPEISERIVQWPAITYKPLLDKAGLGSITSVRFLGDQQRVFLSKDLLKPIQDVNSLRLSLTDNQIVSKEFQALIVKHLDESHLLKGDKNLVGSEVKIYSLDPSTQWFSATVINGNPASKTLQVNCEEIPALKIVDPSLIHVEVVHDNLVTCGNSARIGAVKRKSSENNGTLVSKQAKSCSEASPSMCPVQSVPTTVFKEILLGCTAATPPSKDPRQQSTPQAANSPPNLGAKIPQGCHKQSLPEEISSCLNTKSEALRTKPDVCKAGLLSKSSQIGTGDLKILTEPKGSCTQPKTNTDQENRLESVPQALTGLPKECLPTKASSKAELEIANPPELQKHLEHAPSPSDVSNAPEVKAGVNSDSPNNCSGKKVEPSALACRSQNLKESSVKVDNESCCSRSNNKIQNAPSRKSVLTDPAKLKKLQQSGEAFVQDDSCVNIVAQLPKCRECRLDSLRKDKEQQKDSPVFCRFFHFRRLQFNKHGVLRVEGFLTPNKYDNEAIGLWLPLTKNVVGIDLDTAKYILANIGDHFCQMVISEKEAMSTIEPHRQVAWKRAVKGVREMCDVCDTTIFNLHWVCPRCGFGVCVDCYRMKRKNCQQGAAYKTFSWLKCVKSQIHEPENLMPTQIIPGKALYDVGDIVHSVRAKWGIKANCPCSNRQFKLFSKPASKEDLKQTSLAGEKPTLGAVLQQNPSVLEPAAVGGEAASKPAGSMKPACPASTSPLNWLADLTSGNVNKENKEKQPTMPILKNEIKCLPPLPPLSKSSTVLHTFNSTILTPVSNNNSGFLRNLLNSSTGKTENGLKNTPKILDDIFASLVQNKTTSDLSKRPQGLTIKPSILGFDTPHYWLCDNRLLCLQDPNNKSNWNVFRECWKQGQPVMVSGVHHKLNSELWKPESFRKEFGEQEVDLVNCRTNEIITGATVGDFWDGFEDVPNRLKNEKEPMVLKLKDWPPGEDFRDMMPSRFDDLMANIPLPEYTRRDGKLNLASRLPNYFVRPDLGPKMYNAYGLITPEDRKYGTTNLHLDVSDAANVMVYVGIPKGQCEQEEEVLKTIQDGDSDELTIKRFIEGKEKPGALWHIYAAKDTEKIREFLKKVSEEQGQENPADHDPIHDQSWYLDRSLRKRLHQEYGVQGWAIVQFLGDVVFIPAGAPHQVHNLYSCIKVAEDFVSPEHVKHCFWLTQEFRYLSQTHTNHEDKLQVKNVIYHAVKDAVAMLKASESSFGKP
binding [1]: no binding | binding [2]: binds

Reference: publication PMC9986587
